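Protocol summary: plate cells (96-well), add compound at 5 concentrations, incubate 48 h, interpolate endpoints linearly. Abbreviation: GI50, concentration required for 50% inhibition of growth.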 A number of entries come with more than one value. The other results are left out here. An entry can have further records. For some assays here: The tests behind the records often covered other concentration ranges, which the source does not state; some values may only mark the edge of a range. For some assays here: Values given together repeat one measurement across runs, samples, wells, individuals or studies. A tag in brackets gives the origin of a value. The letters are not those of the source and start again with each entry.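 Definition used: TGI = concentration required for complete inhibition of growth.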
Tests used:
Test in all cases: NCI-60 cell line screen, 48 h
[1] = test system: MALME-3M melanoma
[2] = test system: T-47D breast
[3] = test system: HOP-92 NSCLC
[4] = test system: MOLT-4 leukemia
[5] = test system: EKVX NSCLC
[6] = test system: SK-MEL-2 melanoma
[7] = test system: KM20L2 colon
[8] = test system: RPMI-8226 leukemia
[9] = test system: HL-60(TB) leukemia
[10] = test system: CCRF-CEM leukemia

SMILES	GI50 [1]	TGI [2]	TGI [3]	TGI [4]	TGI [5]	TGI [6]	TGI [7]	TGI [8]	TGI [9]	TGI [10]
Cc1nc(-c2cn3c(n2)-c2ccc(-c4cnn(C(C)(C)C(N)=O)c4)cc2OCC3)n(C(C)C)n1	41.3 nM [sample A, mean of 2 tests] and 662 nM [sample B, mean of 2 tests]	1.45 µM [sample A, mean of 2 tests] and 36.5 nM [sample B, 1 test]	> 26.9 µM [sample A, mean of 2 tests] and 1.88 µM [sample B, mean of 2 tests]							
CCC/C(=N\NC(=S)N1CC2CCC(CC2)C1)c1ccccn1	1.16 µM and 50.6 nM			4.11 µM and 86.9 nM	164 nM and 2.87 µM	221 nM and 2.82 µM	136 nM and 2.78 µM	663 nM and 12.7 nM	572 nM and 11.9 nM	933 nM and 39.8 nM

— PubChem BioAssay (NCI)
